According to article PMC9830914, “Differential effects of mutations of POPDC proteins on heteromeric interaction and membrane trafficking” (Acta Neuropathologica Communications, 2023):
These are yes or no findings as the source states them, for the method shown. For some assays here: In cells and extracts the contact can be indirect. Some entries that bind do so weakly or less than the wild type. For some assays here: Sequences can lack the tags named with a protein.

Key:
[1] = molecular target: T1, POPDC2, endogenous in mouse heart (mouse (endogenous in heart)) (UniProt Q9ES82); assay: co-IP; mouse ventricle lysate (1% Triton X-100), rabbit anti-POPDC2 antibody, Protein A agarose; POPDC1 detected by Western blot; Popdc2 null hearts as control
T1 sequence: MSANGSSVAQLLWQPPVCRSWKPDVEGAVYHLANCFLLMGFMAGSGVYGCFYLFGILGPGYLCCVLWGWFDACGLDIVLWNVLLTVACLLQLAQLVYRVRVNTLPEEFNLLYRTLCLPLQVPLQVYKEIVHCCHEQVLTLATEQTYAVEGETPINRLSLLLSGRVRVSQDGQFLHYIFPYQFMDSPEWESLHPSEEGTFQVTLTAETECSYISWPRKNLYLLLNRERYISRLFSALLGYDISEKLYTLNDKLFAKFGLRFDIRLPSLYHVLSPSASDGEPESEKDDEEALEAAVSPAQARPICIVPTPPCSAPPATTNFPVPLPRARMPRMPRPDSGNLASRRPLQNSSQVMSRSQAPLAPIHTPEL

[2] = molecular target: T1, POPDC2, endogenous in mouse heart (mouse (endogenous in heart)); assay: proximity ligation; Duolink PLA on sections of mouse atrium and ventricle with goat anti-POPDC1 and rabbit anti-POPDC2; Popdc1/Popdc2 double knockout ventricle as negative control
[3] = molecular target: T2, POPDC1 with C-terminal NanoLuc or HaloTag (NanoBRET constructs) (human) (UniProt Q8NE79); assay: FRET or BRET; type-1 quantitative NanoBRET in HEK293 cells; C-terminal NanoLuc and HaloTag (HaloTag-618 dye); expression ratios varied at constant total expression; curves compared to ideal curves for monomers, dimers and other stoichiometries
T2 sequence (chain, HaloTag-618 dye on the HaloTag copy): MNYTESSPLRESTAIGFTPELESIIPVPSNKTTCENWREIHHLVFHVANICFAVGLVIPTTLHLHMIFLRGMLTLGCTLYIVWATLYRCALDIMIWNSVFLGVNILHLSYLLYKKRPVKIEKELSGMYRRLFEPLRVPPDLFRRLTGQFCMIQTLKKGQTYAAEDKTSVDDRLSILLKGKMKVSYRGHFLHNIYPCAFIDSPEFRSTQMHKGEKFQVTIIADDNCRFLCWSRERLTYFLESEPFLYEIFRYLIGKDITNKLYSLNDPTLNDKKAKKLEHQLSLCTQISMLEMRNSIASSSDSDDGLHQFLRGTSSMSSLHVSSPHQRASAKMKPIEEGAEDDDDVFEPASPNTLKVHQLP

[4] = molecular target: POPDC2 with C-terminal NanoLuc or HaloTag (NanoBRET constructs) (human) (UniProt Q9HBU9); assay: as above
[5] = molecular target: T3, POPDC1-MYC (not stated (human or mouse cDNA cloned)) (UniProt Q8NE79); assay: co-IP; COS-7 cells transiently expressing epitope-tagged POPDC constructs, 1% Triton X-100 lysis buffer; c-Myc Tag or HA Tag IP/Co-IP kit; Western blot
T3 sequence: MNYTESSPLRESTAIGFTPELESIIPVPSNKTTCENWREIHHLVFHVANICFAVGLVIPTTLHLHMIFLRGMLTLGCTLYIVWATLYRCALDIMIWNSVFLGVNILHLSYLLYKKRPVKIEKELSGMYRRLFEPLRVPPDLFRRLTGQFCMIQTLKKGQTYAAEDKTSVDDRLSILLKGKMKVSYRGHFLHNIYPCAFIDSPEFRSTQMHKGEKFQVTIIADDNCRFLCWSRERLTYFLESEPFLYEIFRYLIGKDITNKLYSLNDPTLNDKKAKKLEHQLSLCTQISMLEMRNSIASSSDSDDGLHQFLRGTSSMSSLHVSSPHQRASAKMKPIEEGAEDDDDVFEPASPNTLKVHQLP

[6] = molecular target: T4, POPDC3-MYC (UniProt Q9HBV1); assay: as above
T4 sequence: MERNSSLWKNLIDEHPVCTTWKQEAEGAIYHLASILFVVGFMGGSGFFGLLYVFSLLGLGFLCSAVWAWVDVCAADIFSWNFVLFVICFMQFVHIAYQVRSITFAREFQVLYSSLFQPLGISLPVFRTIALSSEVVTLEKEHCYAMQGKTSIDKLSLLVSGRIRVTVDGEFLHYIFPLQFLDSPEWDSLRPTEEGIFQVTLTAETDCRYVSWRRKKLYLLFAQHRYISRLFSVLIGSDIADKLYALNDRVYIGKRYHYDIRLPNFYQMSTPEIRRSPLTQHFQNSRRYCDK

[7] = molecular target: T5, POPDC1-CFP (human) (UniProt Q8NE79); assay: SDS-PAGE and Western blot of oligomer bands; COS-7 cells lysed in 4 M urea and 10% SDS without a reducing agent; anti-GFP antibody detects complexes that hold POPDC1-CFP
T5 sequence: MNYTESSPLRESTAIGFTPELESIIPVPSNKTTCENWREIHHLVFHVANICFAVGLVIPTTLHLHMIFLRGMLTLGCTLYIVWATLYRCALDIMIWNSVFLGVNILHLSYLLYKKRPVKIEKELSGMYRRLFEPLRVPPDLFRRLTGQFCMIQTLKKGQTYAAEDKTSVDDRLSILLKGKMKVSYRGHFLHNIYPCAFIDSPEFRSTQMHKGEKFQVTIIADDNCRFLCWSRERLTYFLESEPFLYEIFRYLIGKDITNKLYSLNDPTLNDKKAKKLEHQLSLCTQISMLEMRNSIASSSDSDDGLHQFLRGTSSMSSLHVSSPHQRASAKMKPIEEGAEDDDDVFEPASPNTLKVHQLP

[8] = molecular target: T6, POPDC1 p.V183F-VC155 (human) (UniProt Q8NE79); assay: split reporter; BiFC in HEK293 cells, split Venus VC155 on POPDC1 and VN155 on POPDC2; Venus signal normalised to co-transfected mRFP and to the wild-type pair (set to 1)
T6 sequence: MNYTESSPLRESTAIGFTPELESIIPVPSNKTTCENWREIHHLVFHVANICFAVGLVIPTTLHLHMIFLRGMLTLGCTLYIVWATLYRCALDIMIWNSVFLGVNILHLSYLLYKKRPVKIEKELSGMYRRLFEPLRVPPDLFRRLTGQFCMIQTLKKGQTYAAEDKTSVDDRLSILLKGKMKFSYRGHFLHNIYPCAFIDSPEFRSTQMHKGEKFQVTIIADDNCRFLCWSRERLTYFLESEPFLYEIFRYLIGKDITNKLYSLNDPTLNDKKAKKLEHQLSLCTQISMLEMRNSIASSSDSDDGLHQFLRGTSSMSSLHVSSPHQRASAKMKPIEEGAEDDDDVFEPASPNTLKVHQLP

[9] = molecular target: T7, POPDC1-VC155 (human) (UniProt Q8NE79); assay: as above
T7 sequence: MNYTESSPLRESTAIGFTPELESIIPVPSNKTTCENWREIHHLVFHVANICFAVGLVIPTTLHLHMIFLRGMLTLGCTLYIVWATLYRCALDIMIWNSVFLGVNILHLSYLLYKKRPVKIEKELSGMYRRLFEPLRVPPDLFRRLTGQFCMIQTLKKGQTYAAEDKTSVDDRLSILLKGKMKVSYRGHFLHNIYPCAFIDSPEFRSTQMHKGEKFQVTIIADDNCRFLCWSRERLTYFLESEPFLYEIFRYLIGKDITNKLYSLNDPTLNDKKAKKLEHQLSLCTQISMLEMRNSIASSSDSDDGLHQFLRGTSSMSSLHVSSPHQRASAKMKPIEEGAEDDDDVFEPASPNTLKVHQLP

[10] = molecular target: T8, POPDC1-HA (not stated (human or mouse cDNA cloned)) (UniProt Q8NE79); assay: co-IP; COS-7 cells transiently expressing epitope-tagged POPDC constructs, 1% Triton X-100 lysis buffer; c-Myc Tag or HA Tag IP/Co-IP kit; Western blot
T8 sequence: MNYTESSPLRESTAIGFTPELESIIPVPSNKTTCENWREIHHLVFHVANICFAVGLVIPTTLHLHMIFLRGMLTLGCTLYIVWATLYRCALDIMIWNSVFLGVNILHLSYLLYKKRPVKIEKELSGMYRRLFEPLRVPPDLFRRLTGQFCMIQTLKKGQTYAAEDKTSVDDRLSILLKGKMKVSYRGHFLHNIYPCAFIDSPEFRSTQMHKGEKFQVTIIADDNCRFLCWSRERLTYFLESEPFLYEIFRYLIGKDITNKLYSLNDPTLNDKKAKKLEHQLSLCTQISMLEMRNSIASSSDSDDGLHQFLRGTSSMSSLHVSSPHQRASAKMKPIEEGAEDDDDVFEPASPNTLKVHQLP

B1: POPDC1 (BVES), endogenous in mouse heart (protein, UniProt Q9ES83 1-358)
chain: MNSTESIPLAQSTVAGFTSELESLTPVPSNETTCENWREIHHLVFHVANVCFAVGLLIPTTLHLHMILLRVMLSLGCTLYVVWATLYRCALDVMIWNSVFLGINILHLSYLLYKKRPVKIEKELGGVYHRLFEPLRVPPDLFRRLTGQFCMIQTLKRGQVYATEDKTSVDDRLSILLKGRMKVSYRGHFLHNIYPCAFIDSPEFRSTQMHKGEKFQVTIVADDNCRFLCWSRERLTYFLESEPFLYEIFRYLIGKDITNKLYSLNDPTLNDKKVKKLEPQMSLCTQISMLEMRNSITSSSDGEDGLHHFLRGSSSTASLPMSSPQQRASAKMKPIEEGVEDDDEVFVSPDALKVHQLP
- binding [1]: binds
- binding [2]: binds

B2: POPDC2 with C-terminal NanoLuc or HaloTag (NanoBRET constructs) (protein, UniProt Q9HBU9 1-364)
chain: MSANSSRVGQLLLQGSACIRWKQDVEGAVYHLANCLLLLGFMGGSGVYGCFYLFGFLSAGYLCCVLWGWFSACGLDIVLWSFLLAVVCLLQLAHLVYRLREDTLPEEFDLLYKTLCLPLQVPLQTYKEIVHCCEEQVLTLATEQTYAVEGETPINRLSLLLSGRVRVSQDGQFLHYIFPYQFMDSPEWESLQPSEEGVFQVTLTAETSCSYISWPRKSLHLLLTKERYISCLFSALLGYDISEKLYTLNDKLFAKFGLRFDIRLPSLYHVLGPTAADAGPESEKGDEEVCEPAVSPPQATPTSLQQTPPCSTPPATTNFPAPPTRARLSRPDSGILASRIPLQSYSQVISRGQAPLAPTHTPEL
modifications: HaloTag-618 dye on the HaloTag copy
- binding [3]: binds
- binding [4]: binds

B3: POPDC2-FLAG (protein, UniProt Q9HBU9 1-364)
chain: MSANSSRVGQLLLQGSACIRWKQDVEGAVYHLANCLLLLGFMGGSGVYGCFYLFGFLSAGYLCCVLWGWFSACGLDIVLWSFLLAVVCLLQLAHLVYRLREDTLPEEFDLLYKTLCLPLQVPLQTYKEIVHCCEEQVLTLATEQTYAVEGETPINRLSLLLSGRVRVSQDGQFLHYIFPYQFMDSPEWESLQPSEEGVFQVTLTAETSCSYISWPRKSLHLLLTKERYISCLFSALLGYDISEKLYTLNDKLFAKFGLRFDIRLPSLYHVLGPTAADAGPESEKGDEEVCEPAVSPPQATPTSLQQTPPCSTPPATTNFPAPPTRARLSRPDSGILASRIPLQSYSQVISRGQAPLAPTHTPEL
- binding [5]: binds
- binding [6]: no binding
- binding [7]: binds

B4: POPDC2-VN155 (natural protein, human, UniProt Q9HBU9 1-364, looked up)
chain: MSANSSRVGQLLLQGSACIRWKQDVEGAVYHLANCLLLLGFMGGSGVYGCFYLFGFLSAGYLCCVLWGWFSACGLDIVLWSFLLAVVCLLQLAHLVYRLREDTLPEEFDLLYKTLCLPLQVPLQTYKEIVHCCEEQVLTLATEQTYAVEGETPINRLSLLLSGRVRVSQDGQFLHYIFPYQFMDSPEWESLQPSEEGVFQVTLTAETSCSYISWPRKSLHLLLTKERYISCLFSALLGYDISEKLYTLNDKLFAKFGLRFDIRLPSLYHVLGPTAADAGPESEKGDEEVCEPAVSPPQATPTSLQQTPPCSTPPATTNFPAPPTRARLSRPDSGILASRIPLQSYSQVISRGQAPLAPTHTPEL
notes: POPDC2, human, full-length wild-type cDNA; also called wild-type POPDC2 with split Venus VN155; source: HEK293, transfected, in cells; not shown: split Venus VN155, C-terminal, kept
- binding [8]: binds
- binding [9]: binds

B5: POPDC3-MYC (protein, UniProt Q9HBV1 1-291)
chain: MERNSSLWKNLIDEHPVCTTWKQEAEGAIYHLASILFVVGFMGGSGFFGLLYVFSLLGLGFLCSAVWAWVDVCAADIFSWNFVLFVICFMQFVHIAYQVRSITFAREFQVLYSSLFQPLGISLPVFRTIALSSEVVTLEKEHCYAMQGKTSIDKLSLLVSGRIRVTVDGEFLHYIFPLQFLDSPEWDSLRPTEEGIFQVTLTAETDCRYVSWRRKKLYLLFAQHRYISRLFSVLIGSDIADKLYALNDRVYIGKRYHYDIRLPNFYQMSTPEIRRSPLTQHFQNSRRYCDK
- binding [10]: binds
- binding [7]: binds
